Measured values published in PubChem BioAssay AID686979 (National Center for Advancing Translational Sciences (NCATS), 2013).
“And” between values parts separate entries of the source, which are not always exact repeats. Identical values can stand only once. The campaign covered roughly 420,000 compounds. About 50,000 (12%) were called active. Inconclusive means that the source gave no clear call. Such entries were picked first, then a sample of the others. Calls come from the whole dose curve; as a rule, active = well fitted inhibition curve with a large enough effect; inconclusive = small, poorly fitted or top-dose-only effect; inactive = flat fitted curve, though single readings scatter. Where the call is inconclusive, the potency comes from a doubtful curve fit.

Assay: qHTS for Inhibitors of human tyrosyl-DNA phosphodiesterase 1 (TDP1): qHTS in cells in presence of CPT; note: nearly all actives have a fitted effect of over 55% in size
Conditions: chicken DT40 Tdp1-/-;hTDP1 cells + 20 nM CPT, ATP luminescence, 48 h; activity change, negative = growth inhibition: at 46.2 µM (top of the series)
Procedure, shortened: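 Cell growth measured by CellTiter-Glo luminescence after a minimum 48 h, 37 C compound exposure with 20 nM CPT in Tdp1-knockout DT40 cells stably expressing hTDP1, seeded 400/well; qHTS titration format.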
% is set by controls: 0 for no effect and ±100 for the full control effect; potency is the fitted concentration of half-maximal effect; tags give direction and shape of the fitted curve.

Row | SMILES | Potency | activity change, negative = growth inhibition
1 | COc1ccc(C(=O)NCc2cc(C)nc3ccccc23)cc1 | inconclusive: 29.1 µM [inhibitor, single point] | 
2 | Cc1ccc(CNC(=O)CN(c2ccc(C)cc2)S(=O)(=O)c2c(C)nn(C)c2C)cc1 | inconclusive: 29.1 µM [inhibitor, single point] and inconclusive: 14.6 µM [inhibitor, single point] | 
3 | CC(C)N(C)Cc1nnnn1CC(=O)NCCc1cccc(C(F)(F)F)c1 |  | inactive: 20.2%
4 | CC(C)CCn1c(SCCc2ccccc2)nc2c1c(=O)[nH]c(=O)n2C | inconclusive: 29.1 µM [inhibitor, single point] | 
5 | Cc1ccc2oc(=O)n(CC(=O)O)c2c1 |  | inactive: -0.258%
6 | Cc1cc(/C=N/Nc2ncnc(N)c2[N+](=O)[O-])c(C)n1-c1ccccc1 | inconclusive: 16.4 µM [inhibitor, single point] | 
7 | CCNC(=O)/C(C#N)=C/c1c(N2CCN(c3ccc(OC)cc3)CC2)nc2c(C)cccn2c1=O | inconclusive: 25.9 µM [inhibitor, single point] | 
8 | CC1(CCc2ccccc2)NC(=O)N(CC(=O)Nc2ccc(S(N)(=O)=O)cc2)C1=O (stereo not drawn) |  | inactive: 2.72%
9 | Cc1ccc2c(=O)cc(C(=O)Nc3ccc(S(=O)(=O)N(C)Cc4ccccc4)cc3)oc2c1 | inconclusive: 1.16 µM [inhibitor, partial curve] | 
10 | CCCCn1c(C(C)NC(=O)c2ccccc2)nc2ccccc21 (stereo not drawn) | inconclusive: 29.1 µM [inhibitor, single point] | 
11 | C[C@@H]1CN([C@@H](C)CO)C(=O)CCCn2nncc2CO[C@H]1CN(C)Cc1cccc(C(F)(F)F)c1 |  | inactive: 1.25%
12 | COc1ccccc1-c1cc2nc(C)c(CCC(=O)NCc3cccc(Cl)c3)c(C)n2n1 | inconclusive: 16.4 µM [inhibitor, single point] | 
13 | CCN(C(=O)CSc1nc2n[nH]c(C)c2c(=N)n1-c1ccc(Cl)c(C)c1)c1cccc(C)c1 | active: 18.4 µM | 
14 | Cc1nc(Nc2cccc(C(C)O)c2)c2nnn(Cc3ccc(F)cc3)c2n1 (stereo not drawn) | inconclusive: 25.9 µM [inhibitor, single point] | 
15 | O=C(N/C(=C/c1ccccc1)C(=O)N1CCCCC1)c1ccccc1 | inconclusive: 16.4 µM [inhibitor, partial curve] | 
16 | COC(=O)[C@H](C(C)C)N(Cc1ccccc1)S(=O)(=O)CCN1CCN(c2ccccc2)CC1 | inconclusive: 29.1 µM [inhibitor, single point] | 
17 | COc1ccc(C(=O)NCc2cn3ccsc3n2)cc1OC |  | inactive: -6.48%
18 | CCOC(=O)c1[nH]c2c(c1-c1ccccc1)C(=O)CC(c1ccc(OC)c(OC)c1)C2 (stereo not drawn) | inconclusive: 29.1 µM [inhibitor, single point] | 
19 | O=c1oc(-c2ccccc2)c(-c2ccccc2)c2ccccc12 | inconclusive: 29.1 µM [inhibitor, single point] | 
20 | Cc1noc(C)c1-c1nc(NCc2cccnc2)c2ccccc2n1 | inconclusive: 25.9 µM [inhibitor, single point] | 
21 | CCOc1cccc(C(=O)Nc2ccc(NC(=O)c3ccccc3)c(C)c2)c1 | inconclusive: 13 µM [inhibitor, single point] | 
22 | Cc1ccc(C(=O)Nc2ccc(F)cc2)o1 | inconclusive: 29.1 µM [inhibitor, single point] | 
23 | CCCOc1cccc(C(=O)N(Cc2ccc(OC)c(OC)c2)C2CCS(=O)(=O)C2)c1 (stereo not drawn) |  | inactive: -9.04%

Row | SMILES | Potency | activity change, negative = growth inhibition
24 | CCOc1cccc(C2CC(=O)Nc3cc(OC)c(OC)cc32)c1 (stereo not drawn) | inconclusive: 25.9 µM [inhibitor, single point] | 
25 | CC1C(=O)N(Cc2cn(CC3CCCCC3)nn2)CCS(=O)(=O)N1Cc1ccc(-c2ccc(F)nc2)cc1 (stereo not drawn) | inconclusive: 16.4 µM [inhibitor, single point] | 
26 | CCN(CC(=O)Nc1ccc2c(c1)OCCO2)C(=O)/C=C/c1cccc(Br)c1 |  | inactive: -15.9%
27 | N=c1c2ccccc2nc2n1CCCCC2 |  | inactive: -0.179%
28 | CC(C)CCn1c(=O)c2sccc2n2c(CCCC(=O)NCc3ccc(F)cc3)nnc12 | active: 18.4 µM | 
29 | CCOc1cc(S(=O)(=O)n2c(C)nc3ccccc32)ccc1F | inconclusive: 20.6 µM [inhibitor, single point] | 
30 | Cc1nnc(SCc2ccc([N+](=O)[O-])cc2)o1 | inconclusive: 29.1 µM [inhibitor, single point] | 
31 | Cc1ncc([N+](=O)[O-])n1CC(=O)Nc1ccc(OC(F)(F)Cl)cc1 | inconclusive: 16.4 µM [inhibitor, partial curve] | 
32 | Cc1ccc(C(NC(=O)C2CCN(CCOc3ccc(Cl)cc3Cl)CC2)c2ccccn2)cc1 (stereo not drawn) | active: 25.9 µM | 
33 | O=C(Nc1ccc(-c2cn3ccccc3n2)cc1)c1ccc(Cl)cc1 | active: 23.1 µM | 
34 | O=C(COc1ccccc1)Nc1cccc(-c2cn3cccnc3n2)c1 | active: 20.6 µM | 
35 | CC(C)c1ccc(Nc2nnc(SCC(=O)NCC3CCCO3)s2)cc1 (stereo not drawn) | inconclusive: 23.1 µM [inhibitor, single point] | 
36 | CC1(C)ON=C(c2ccc(C(F)(F)F)cc2)NC1=O | inconclusive: 32.6 µM [inhibitor, single point] | 
37 | Nc1c(Cl)cc(C2=NCCn3nc4cc([N+](=O)[O-])ccc4c32)cc1Cl | inconclusive: 18.4 µM [inhibitor, single point] | 
38 | Cc1cccc(N2CCN(C(=O)CCn3c(=O)c4cccn4c4cccnc43)CC2)c1C | inconclusive: 20.6 µM [inhibitor, single point] | 
39 | Cc1ccccc1CN(C)C(=O)[C@H](Cc1ccccc1)NC(=O)c1ccco1 | inconclusive: 29.1 µM [inhibitor, single point] | 
40 | O=C(Nc1cccc(OC(F)(F)F)c1)C1Cc2c(-c3ccc(Cl)cc3)ccnc2O1 (stereo not drawn) | inconclusive: 23.1 µM [inhibitor, single point] | 
41 | Cc1ccc(-c2nnn(CC(=O)N3CCC(C)CC3)n2)o1 |  | inactive: -10.2%
42 | O=C(Cn1c(=O)c2cccn2c2ccc(F)cc21)N1CCN(c2ccc(F)cc2)CC1 | inconclusive: 18.4 µM [inhibitor, single point] | 
43 | CCOc1ccccc1CNC(=O)c1cccn1-c1nnc(N2CCCCC2)s1 | inconclusive: 16.4 µM [inhibitor, single point] | 
44 | COCc1ccc(C(=O)N2CCCC(N3CCN(c4ccc(F)cc4)CC3)C2)o1 (stereo not drawn) | inconclusive: 14.6 µM [inhibitor, single point] | 
45 | O=C(CC1C(=O)NCCN1CC1CCCCC1)NCc1cc(F)ccc1F (stereo not drawn) | active: 23.1 µM | 
46 | Cc1cccc(OCC(=O)Nc2ccc3c(c2)nc(CCN2CCN(c4ccccn4)CC2)n3C)c1 | active: 23.1 µM | 

Row | SMILES | Potency | activity change, negative = growth inhibition
47 | Cc1ccn2c(=O)c(C(=O)NC(C)c3ccccc3)c(O)nc2c1 (stereo not drawn) | inconclusive: 25.9 µM [inhibitor, single point] | 
48 | CS(=O)(=O)N(CC(=O)NCc1ccco1)c1ccc(Cl)c(C(F)(F)F)c1 | inconclusive: 23.1 µM [inhibitor, single point] | 
49 | Cc1ccsc1C1C(C#N)=C(N)Oc2n[nH]c(C)c21 (stereo not drawn) | inconclusive: 29.1 µM [inhibitor, single point] | 
50 | COc1cc2c(cc1OC)C(C(=O)Nc1ccc3c(c1)OCCO3)C(c1cccnc1)N(C)C2=O (stereo not drawn) | inconclusive: 25.9 µM [inhibitor, single point] | 
51 | COc1ccc(Cn2c(=O)n(Cc3ccco3)c(=N)c3c4c(sc32)COC(C)(C)C4)cc1 | inconclusive: 18.4 µM [inhibitor, single point] | 
52 | Cn1c(O)c(N=NC(=O)Cn2ccc(C(F)(F)F)n2)c2ccccc21 |  | inactive: -3.49%
53 | CCOC(=O)c1c(NC(=S)N2CCN(C)CC2)sc(C)c1-c1ccccc1 | inconclusive: 20.6 µM [inhibitor, single point] | 
54 | COc1ccccc1N1CCN(C(=O)c2cc(-c3ccccc3O)on2)CC1 | active: 20.6 µM | 
55 | O=C(NCCc1ccccc1)c1ccc(CS(=O)Cc2cccc(Cl)c2)o1 (stereo not drawn) |  | inactive: -29.4%
56 | COc1ccc(CCNC(=O)c2ccc3c(c2)N(Cc2ccc(F)cc2)CCS3)cc1OC | inconclusive: 20.6 µM [inhibitor, single point] and inconclusive: 29.1 µM [inhibitor, single point] | 
57 | O=C(NCc1nnc2n1CCN(Cc1cccc(Cl)c1)CC2)c1cccc(F)c1 | active: 5.17 µM | 
58 | COCCNc1nc(-c2cc3ccccc3o2)cs1 |  | inactive: -7.36%
59 | CCc1c(C)sc(NC(=O)Cn2nc(C)c([N+](=O)[O-])c2C)c1C(N)=O | inconclusive: 29.1 µM [inhibitor, single point] | 
60 | O=C(COc1ccccc1[N+](=O)[O-])Nc1ccc(-c2nc3ccccc3s2)cc1 | active: 20.6 µM | 
61 | COc1ccc(/C=N/n2c(-c3ccccc3)n[nH]c2=S)cc1 | inconclusive: 29.1 µM [inhibitor, single point] | 
62 | CCCCN=C1NN=C(c2cccc([N+](=O)[O-])c2)CS1 | inconclusive: 29.1 µM [inhibitor, single point] | 
63 | O=C(OCn1ncc(Br)c(Br)c1=O)c1ccccc1Cl | active: 1.16 µM | 
64 | Cn1c(-c2ccc(F)cc2)cc2onc(-c3ccccc3Cl)c2c1=O | inconclusive: 29.1 µM [inhibitor, single point] | 
65 | O=C(CNC(=O)c1ccccc1)NCCc1nc2ccccc2[nH]1 |  | inactive: 3.67%
66 | S=C(Nc1cccc(Cl)c1)Nc1ccc2cn[nH]c2c1 |  | inactive: 1.54%
67 | O=C(CN1CCCN(S(=O)(=O)c2ccc(Br)s2)CC1)Nc1ccc(Cl)cc1 | inconclusive: 25.1 µM [inhibitor, single point] | 
68 | O=C(CSCc1cnn(-c2ccccc2)c1-n1cccc1)NCC1CCCO1 (stereo not drawn) | inconclusive: 3.26 µM [inhibitor, partial curve] | 
